Source: publication PMC4336329 (PLoS ONE, 2015)
Hit rate of the full screen: of about 310,000 compounds, about 14,000 (4.5%) showed an effect of 50% or more. Effects have a minus sign here. This is one part of the list.

What follows are compounds tested against human ether-à-go-go-related gene (hERG) potassium channel (human, UniProt Q12809) (assay: primary screen, population patch clamp on CHO cells stably expressing hERG).
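Also: peak tail current of the secondary pulse compared with the same well before compound.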

Chain of human ether-à-go-go-related gene (hERG) potassium channel (Q12809 whole entry, looked up): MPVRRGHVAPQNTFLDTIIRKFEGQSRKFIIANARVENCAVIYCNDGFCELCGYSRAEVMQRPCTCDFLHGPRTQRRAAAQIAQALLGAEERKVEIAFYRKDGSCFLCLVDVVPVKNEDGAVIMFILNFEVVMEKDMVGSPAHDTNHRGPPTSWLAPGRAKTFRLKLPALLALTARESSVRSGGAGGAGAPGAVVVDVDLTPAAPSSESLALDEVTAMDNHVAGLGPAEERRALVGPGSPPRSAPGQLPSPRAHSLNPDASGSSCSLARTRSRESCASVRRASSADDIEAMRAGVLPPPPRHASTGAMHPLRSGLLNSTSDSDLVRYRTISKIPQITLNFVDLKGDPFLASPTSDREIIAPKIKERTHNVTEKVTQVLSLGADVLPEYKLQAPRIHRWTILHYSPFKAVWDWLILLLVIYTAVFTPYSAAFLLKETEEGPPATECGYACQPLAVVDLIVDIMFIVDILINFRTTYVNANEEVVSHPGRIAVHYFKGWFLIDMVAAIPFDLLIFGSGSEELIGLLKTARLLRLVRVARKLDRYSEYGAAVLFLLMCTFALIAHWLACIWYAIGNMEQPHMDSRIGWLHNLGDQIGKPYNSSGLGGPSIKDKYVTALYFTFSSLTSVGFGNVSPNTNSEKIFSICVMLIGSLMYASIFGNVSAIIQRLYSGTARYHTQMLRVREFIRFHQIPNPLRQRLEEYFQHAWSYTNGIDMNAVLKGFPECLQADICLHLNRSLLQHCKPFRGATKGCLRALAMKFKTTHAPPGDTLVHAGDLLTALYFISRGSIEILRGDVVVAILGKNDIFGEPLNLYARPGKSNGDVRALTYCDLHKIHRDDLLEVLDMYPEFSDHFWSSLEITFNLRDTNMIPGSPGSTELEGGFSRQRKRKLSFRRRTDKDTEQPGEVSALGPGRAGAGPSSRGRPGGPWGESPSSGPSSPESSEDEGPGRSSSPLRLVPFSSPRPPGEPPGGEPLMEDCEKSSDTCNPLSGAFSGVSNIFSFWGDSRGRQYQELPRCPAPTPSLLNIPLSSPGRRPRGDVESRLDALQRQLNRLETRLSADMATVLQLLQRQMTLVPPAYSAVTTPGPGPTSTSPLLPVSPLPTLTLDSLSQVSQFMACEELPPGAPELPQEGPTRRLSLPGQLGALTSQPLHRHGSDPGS

SMILES	hERG current change (%, negative = inhibition) at 10uM [%]
COc1cc(C#Cc2c(-c3cncn3C)n(C)c3ccc(-c4ccc5[nH]ccc5c4)cc23)cc(OC)c1	12.4
Cc1ccc(-c2c(C#N)c(N)nc3c2CCCC3)s1	7.08
CC(C)c1onc(C(=O)N2CCC(C(N)=O)CC2)c1[N+](=O)[O-]	11.7
Cc1cnc(C(=O)Nc2nccs2)cn1	-5.08
CCCCn1c(N)c(N(CC(C)C)C(=O)c2cccc(S(=O)(=O)N3CCN(C)CC3)c2)c(=O)[nH]c1=O	6.33
CCOc1ccc(-c2cc(CCCC(=O)NCCc3ccccc3)no2)cc1	0.847
NC(=O)[C@H]1CC2(CC(c3cccc(NC(=O)[C@H]4CCC(=O)N4)c3)=NO2)CN1C(=O)CC(c1ccccc1)c1ccccc1 (stereo partly drawn)	-10.2
O=C(O)CC12CSc3[nH]c(=O)sc3C1c1ccccc1OC2=O (stereo not drawn)	12.7
Cc1ccc(C)c(N(CC(=O)N(C)C)S(C)(=O)=O)c1	9.38
COc1cccc(NC(=O)c2ccccc2C(F)(F)F)c1	18.7
COc1ccc(OCC(=O)N2CCN(CC3CC4C=CC3C4)CC2)cc1 (stereo not drawn)	-26.6
O=C(CCNS(=O)(=O)c1ccc(Br)cc1)NCc1cccs1	-21.3
NC(=S)Nc1cccc(-c2n[nH]c(=S)o2)c1	17.2
CC(C)CN(CC(C)C)S(=O)(=O)N1CCC(C(=O)NCCc2ccc(Cl)cc2)CC1	11.3
CN1CCN(C(=S)NC(=O)/C=C/c2cccc3ccccc23)CC1	-1.99
COc1ccc(-c2noc(CCCC(=O)NCCc3ccccc3)n2)cc1OC	-1.81
Cn1c(CC(=O)NNC(=O)c2cccnc2)nc2ccccc21	4.23
CN(C)Cc1c(O)ccc2[nH]cnc12.Cl	-0.964
CC(C)N1CCc2c(sc(NC(=O)CCS(=O)(=O)c3ccccc3)c2C(N)=O)C1.Cl	-26
CC1CCN(CC(O)COc2cccc(F)c2)CC1 (stereo not drawn)	-24.8
COCC1CCN(C(=O)c2ccc3oc(CCCc4ccccc4)nc3c2)C1 (stereo not drawn)	-42.7
O=C(c1ccccc1)c1sc(N2CCOCC2)nc1-c1ccccc1	-19.5
COC(=O)Cn1cnc2c(cnn2-c2ccccc2)c1=O	1.49

SMILES	hERG current change (%, negative = inhibition) at 10uM [%]
COc1ccc(NC(=S)NCCc2c[nH]c3ccc(OC)cc23)c(OC)c1	-16.3
COc1ccc(Cl)cc1N(CC(=O)Nc1ccccc1C(=O)N1CCCC1)S(C)(=O)=O	-13.6
COc1ccccc1NC(=O)Nc1cccnc1	6.32
CC1(C)NC(=O)N(CC(O)COc2cccc(F)c2)C1=O (stereo not drawn)	2.89
COc1ccc(OC)c(C2=NOC(C(=O)N3CCC4(CC3)OCCO4)C2)c1 (stereo not drawn)	5.15
CCOC(=O)c1ccc(NC(=O)Cn2cccc2)cc1	-8.88
Cc1cnc(CNC(=O)c2ccc3oc(C(C)C)nc3c2)[nH]1	0.439
Cc1ccc(S(=O)(=O)N2CCCCC2C(=O)NCc2ccco2)cc1 (stereo not drawn)	-21.2
Cc1[nH]nc2c1C(c1cccs1)C1=C(CC(C)(C)CC1=O)N2 (stereo not drawn)	25
COc1ccc(/C=C(/NC(=O)c2ccccc2)C(=O)NCc2ccncc2)cc1	-44.5
CCNC(=S)/N=C(\N)Nc1nc(C)c2cc(C)ccc2n1	12.5
COc1cc(CN2CCNC(=O)C2CC(=O)N(C)Cc2ncc[nH]2)cc(OC)c1 (stereo not drawn)	28.6
O=C(c1ccccn1)N1CCN(S(=O)(=O)c2ccc(F)cc2)CC1	3.65
Cc1nc(NC(=O)c2ccc(-c3cc4ccccc4oc3=O)cc2)ccc1Br	-2.99
CNCC(=O)O	-3.15
COc1ccccc1C(=O)Nc1onc(C)c1C#N	22.5
Cc1ccc(C)c(C(=O)COC(=O)Cn2[nH]c(=O)c3ccccc3c2=O)c1	5.51
C/C=C/Cn1c(N(C)Cc2ccccc2)nc2c1c(=O)[nH]c(=O)n2C	-24.3
CN1CCN(C(=O)c2ccc3c(c2)N(Cc2ccc(F)cc2)C(=O)c2ccccc2S3=O)CC1 (stereo not drawn)	11.8
O=C(O)CN(c1ccccn1)S(=O)(=O)c1ccc(Cl)cc1	8.28
CCOc1ccc(CCNC(=O)COC(=O)c2cccc(OC)c2O)cc1OCC	8.17
COc1ccc(NC(=O)c2sc(Cl)nc2-c2ccccc2)cc1	9.44
